We go through 42 compounds from ChEMBL document CHEMBL4888484, “Replenishing the malaria drug discovery pipeline: Screening and hit evaluation of the MMV Hit Generation Library 1 (HGL1) against asexual blood stage Plasmodium falciparum ,using a nano luciferase reporter read-out” (2022).

Broadly, the % Inhibition is the drop in the measured response relative to a control, in per cent.

Out of some 150,000 compounds screened, about 540 (0.36%) showed an effect of 50% or more. Some of the results follow.

The test system of the experiment is Plasmodium falciparum. Nature of the experiment: Primary screen in NF54 nanoGlo assay, in single point, at 2uM, 72h; a lower Z score goes with more inhibition. It counts as functional, Erythrocyte. The note with it: timepoint 72 hour.
With `O=C(NCc1cccc(COCc2ccco2)c1)c1cc2c(cc1O)OCO2`, the “% Inhibition” value is 2% and the Z score is reported as -0.3.
The like results for `CCOCC(=O)N1C[C@@H](COC)[C@H](c2nc(C3CC3)no2)C1` were, in that order, -8% and 1.39.
`O=C(Cn1nc(-c2ccccc2)ccc1=O)N1CC2CCC(O)C2C1` (centres undefined): the “% Inhibition” value was -2% and the Z score came out at 0.28.
As for `COc1ccc2[nH]c(CN3C[C@@H]4CC[C@H]3CN(S(C)(=O)=O)C4)c(C)c2c1`, the “% Inhibition” value was -4% and the Z score was 0.71.
The like results for `O=C1CCN(c2nc(-c3cccnc3)nc3ccccc23)CCN1` were, in that order, 0% and -0.02.
Consider `COCCN(CC(=O)N1N=C(c2cccn2C)C[C@H]1c1ccc(Cl)cc1)C(=O)c1cccc(F)c1`, for which the “% Inhibition” value is 3% and the Z score was -0.43.
Regarding `O=C(Nc1cccnc1)c1c[nH]c(=O)n(Cc2cccs2)c1=O`, the “% Inhibition” value was found to be 1% and the Z score is on record as -0.09.
The like results for `CC(C)CC[C@@H](CCNCc1ccccn1)c1ccc(Cl)cc1` were, in that order, 25% and -3.14.
The like results for `CCc1nnc2c(=O)n(CC(=O)N3CCN(c4ccccc4F)CC3)c3ccccc3n12` were, in that order, -9% and 1.05.
The like results for `COc1ccc(-c2noc(-c3cccn3CC(=O)N3CCCC3)n2)cc1OC` were, in that order, -8% and 1.06.
Regarding `Cc1ccc(/C=C/[C@]23NC(=O)CN2c2ccccc2C3(C)C)cc1`, the “% Inhibition” value worked out at 11% and the Z score is recorded as -1.34.
The like results for `CC(=O)NC1CN(C(=O)N[C@@H](C)CC(C)(C)C)C1` were, in that order, -7% and 1.47.
Take `Cc1cc(Cl)ccc1Nc1nc(N2CCN(c3ccc(F)cc3)CC2)nc2nccnc12`: the “% Inhibition” value is given as -22% and the Z score was determined as 2.5.
The like results for `CN(Cc1ccsc1)C(=O)Cn1cnc2ccccc21` were, in that order, -17% and 1.45.
The like results for `CCn1ccc(C(=O)N(C[C@H]2CCOC2)C2CCN(C)CC2)n1` were, in that order, -10% and 1.34.
`CC(C)(C)OC(=O)N1CCC[C@H]1C(=O)NCc1ccc(-n2cncn2)nc1`: the “% Inhibition” value was -7% and the Z score is recorded as 0.89.
The like results for `Cc1cnc(C)c(N2CC[C@@]3(CCCN(CC4CCC4)C3=O)C2)n1` were, in that order, -4% and 0.87.
The like results for `Cc1cc(=O)n(CC(=O)Nc2ccc(F)cc2C)c(N2CCCC2)n1` were, in that order, -6% and 0.69.
The like results for `COc1cc(CN2CCN3CCCC3C2C2CCCCC2)cc(OC)c1` (centres undefined) were, in that order, -5% and 1.02.
For the compound `O=C1c2cccc(Cl)c2CCN1CCNCc1ccccc1`, the “% Inhibition” value stood at 9% and the Z score was -1.67.
The like results for `COc1ccc(C(=O)N2CCN(Cc3c(-c4ccc(F)cc4)nc4ccc(-c5ccccc5)cn34)CC2)cc1` were, in that order, -1% and 0.07.
The like results for `Cc1nonc1N1CCN(Cc2nc(-c3cc4c(cc3Cl)OCO4)oc2C)CC1` were, in that order, -6% and 1.15.
The like results for `COc1cc2c(C#N)c(OC)nc3c2c(n1)NC1(CCCCC1)N3` were, in that order, -2% and 0.21.
Consider `O=C(O)c1cccc(S(=O)(=O)NC[C@@H]2COc3ccccc3C2)c1`, for which the “% Inhibition” value is listed as 15% and the Z score is reported as -1.97.
The like results for `CC(C)n1cc(CN(C)c2nccnc2C#N)cn1` were, in that order, -9% and 1.58.
The like results for `Cn1ncc(C(=O)Nc2cccc(Oc3ccncc3)c2)c1C(F)F` were, in that order, -12% and 1.47.
The like results for `COc1ccccc1/C=C/CN[C@H]1CC[C@@H](n2cc(C(=O)NC3CC3)nn2)CC1` were, in that order, 5% and -0.93.
For the compound `Cc1nc(C(=O)c2ccccc2)c(C)o1`, the “% Inhibition” value is listed as -17% and the Z score was 1.94.
The like results for `CCCS(=O)(=O)N1CC(Oc2ccccc2-c2nc(CCOC)no2)C1` were, in that order, 8% and -0.95.
As to `COc1cc(NC(=O)Cc2noc3ccccc23)ccc1N1CCOC1=O`, the “% Inhibition” value is recorded as -1% and the Z score is 0.11.
Regarding `CCOc1ccccc1N(C)C(=O)C1c2ccccc2C(=O)N(C)C1c1ccc(OC)cc1` (centres undefined), the “% Inhibition” value is listed as 12% and the Z score is -1.92.
`CCOC(=O)N1CCN(C(=O)c2cc3ccccc3cc2NC(=O)C(C)C)CC1`: the “% Inhibition” value is -2% and the Z score worked out at 0.43.
The like results for `Cn1cc(NC(=O)[C@H]2CCOC3(CCCC3)C2)c(C(N)=O)n1` were, in that order, 1% and -0.08.
The like results for `CN(C)c1ccnc(N2CCN(c3ccc(C(N)=O)cc3)CC2)n1` were, in that order, -2% and 0.26.
For `Cc1ncc(CN2CCN(Cc3ccncc3)[C@@H]3CS(=O)(=O)C[C@@H]32)cn1`, the “% Inhibition” value is listed as 1% and the Z score is -0.14.
The like results for `COc1ccc([C@H](C)NS(N)(=O)=O)cc1F` were, in that order, -4% and 0.69.
The like results for `CCS(=O)(=O)C[C@H](C)N(C)C(=O)NCCc1ccc(F)cc1F` were, in that order, -9% and 1.07.
The like results for `N#Cc1ccc(S(=O)(=O)NCC2(C3CC3)CCC2)s1` were, in that order, 0% and -0.01.
Regarding `C[C@@H](C(=O)NS(=O)(=O)c1ccsc1)c1ccccc1`, the “% Inhibition” value stood at 1% and the Z score is -0.08.
For `CC(C)N1CC(=O)N(Cc2ccc(N(C)C)nc2)C1=O`, the “% Inhibition” value was 2% and the Z score is reported as -0.34.
With `CCCc1nc(C(=O)N(C)C[C@H]2CCN(c3ccccc3)C2)cs1`, the “% Inhibition” value amounted to 14% and the Z score was -1.87.
The like results for `NS(=O)(=O)[C@H]1CCCN(C(=O)c2cc(-c3ccccc3)ns2)C1` were, in that order, -9% and 1.42.
